According to the supplement of paper PMC10126150:
Values marked as one replicate rest on one cluster of the flow cell; about a third of the high ones do not repeat.

Tested on: ATP
Experiment: switch fluorescence ratio, 500 uM ATP over buffer (Cy3 cluster intensity, sum of 5 cycles each) (fold (ratio)); higher = stronger signal-on switching upon ATP binding; sequences stand for … in TCGTCGGCAGCGTCAGATGTGTATAAGAGACAGTTTTTTTTTTTTTTTTTTTTTTTTT…TC
Conditions: aptamer strand: ATP DNA aptamer (quencher-CACCTGGGGGAGTATTGCGGAGGAAGG + anchor), 100 nM annealed; ATP concentration: 500 uM; one replicate
Method in brief: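 Switching-strand clusters labelled with Cy3 on a modified Illumina MiSeq flow-cell were annealed to 100 nM quencher-labelled ATP aptamer, imaged in selection buffer, and re-imaged after 15 min with 500 uM ATP at 22 °C. This was done over five cycles with NaOH stripping and re-annealing in between. The fluorescence ratio is summed target-cycle over summed buffer-cycle Cy3 intensity per cluster, averaged per switch-domain sequence, excluding clusters outside 100-1000 RFU.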
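Further: ATP exposure 15 min at 22 °C before imaging.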

Q: Which switch fluorescence ratio does the source give for ATTCTTCGT here?
A: 1.01

Q: ATTGAAACAG was tested. Which switch fluorescence ratio did it give?
A: 0.954

Q: ATTGAAGCG was tested. Which switch fluorescence ratio did it give?
A: 1.14

Q: ATTGACAGCA was tested. Which switch fluorescence ratio did it give?
A: 1.06

Q: With ATTGACCCTT as the sequence, how does the switch fluorescence ratio read?
A: 1.06

Q: ATTGACGAAC was tested. Which switch fluorescence ratio did it give?
A: 1.41

Q: For ATTGACGGCT, which switch fluorescence ratio is on record?
A: 0.991

Q: For ATTGACTTTG, which switch fluorescence ratio is on record?
A: 0.98

Q: For ATTGAGGTCA, which switch fluorescence ratio is on record?
A: 1.01

Q: ATTGAGTCT was tested. Which switch fluorescence ratio did it give?
A: 0.928

Q: ATTGATACTC was tested. Which switch fluorescence ratio did it give?
A: 1.03

Q: With ATTGATAGGT as the sequence, how does the switch fluorescence ratio read?
A: 0.993

Q: ATTGATGCAC was tested. Which switch fluorescence ratio did it give?
A: 1.04

Q: ATTGATTT was tested. Which switch fluorescence ratio did it give?
A: 1

Q: Which switch fluorescence ratio does the source give for ATTGCACCGG here?
A: 0.967

Q: Which switch fluorescence ratio does the source give for ATTGCAGAT here?
A: 0.998

Q: For ATTGCCAATC, which switch fluorescence ratio is on record?
A: 0.996

Q: How did the switch fluorescence ratio turn out when ATTGCGCGCC was run?
A: 1

Q: ATTGGACCAA was tested. Which switch fluorescence ratio did it give?
A: 1.05

Q: How did the switch fluorescence ratio turn out when ATTGGAGCCG was run?
A: 1.04

Q: With ATTGGATTTC as the sequence, how does the switch fluorescence ratio read?
A: 1.05

Q: For ATTGGCCAGG, which switch fluorescence ratio is on record?
A: 1.09

Q: With ATTGGCGGTC as the sequence, how does the switch fluorescence ratio read?
A: 1.04

Q: How did the switch fluorescence ratio turn out when ATTGGGCGC was run?
A: 0.997

Q: With ATTGGTTGTC as the sequence, how does the switch fluorescence ratio read?
A: 2.52

Q: For ATTGGTTTTA, which switch fluorescence ratio is on record?
A: 1.43

Q: Which switch fluorescence ratio does the source give for ATTGTAGAAC here?
A: 0.973

Q: With ATTGTATAT as the sequence, how does the switch fluorescence ratio read?
A: 0.957

Q: How did the switch fluorescence ratio turn out when ATTGTCATCG was run?
A: 0.966

Q: ATTGTCCTTT was tested. Which switch fluorescence ratio did it give?
A: 1.04

Q: How did the switch fluorescence ratio turn out when ATTGTCTGAA was run?
A: 0.978

Q: Which switch fluorescence ratio does the source give for ATTGTGGTAA here?
A: 0.992

Q: Which switch fluorescence ratio does the source give for ATTGTTACAA here?
A: 0.973

Q: Which switch fluorescence ratio does the source give for ATTGTTTAGG here?
A: 1.02

Q: How did the switch fluorescence ratio turn out when ATTTAATCAA was run?
A: 0.998

Q: With ATTTACGCT as the sequence, how does the switch fluorescence ratio read?
A: 1.07

Q: ATTTAGGAA was tested. Which switch fluorescence ratio did it give?
A: 0.92

Q: For ATTTAGTATG, which switch fluorescence ratio is on record?
A: 0.954

Q: With ATTTATATAA as the sequence, how does the switch fluorescence ratio read?
A: 1.01

Q: With ATTTATGAC as the sequence, how does the switch fluorescence ratio read?
A: 1.06

Q: For ATTTATGATC, which switch fluorescence ratio is on record?
A: 1.06

Q: For ATTTCCGCTA, which switch fluorescence ratio is on record?
A: 3.3

Q: For ATTTCCGGGA, which switch fluorescence ratio is on record?
A: 1.03

Q: With ATTTCGCATA as the sequence, how does the switch fluorescence ratio read?
A: 1.62

Q: How did the switch fluorescence ratio turn out when ATTTCGTTTT was run?
A: 1.02

Q: How did the switch fluorescence ratio turn out when ATTTCTAACG was run?
A: 1.06

Q: ATTTCTGGG was tested. Which switch fluorescence ratio did it give?
A: 0.991

Q: How did the switch fluorescence ratio turn out when ATTTCTGTAT was run?
A: 1.02

Q: For ATTTGACGCT, which switch fluorescence ratio is on record?
A: 0.986

Q: For ATTTGATGTC, which switch fluorescence ratio is on record?
A: 1.04

Q: For ATTTGCAACA, which switch fluorescence ratio is on record?
A: 0.994

Q: With ATTTGCAGA as the sequence, how does the switch fluorescence ratio read?
A: 0.945

Q: For ATTTGCATG, which switch fluorescence ratio is on record?
A: 0.994

Q: ATTTGGAG was tested. Which switch fluorescence ratio did it give?
A: 0.989

Q: With ATTTGGAGCC as the sequence, how does the switch fluorescence ratio read?
A: 1

Q: Which switch fluorescence ratio does the source give for ATTTGGATC here?
A: 1.01

Q: For ATTTGGCTTA, which switch fluorescence ratio is on record?
A: 0.985

Q: How did the switch fluorescence ratio turn out when ATTTGTCAAA was run?
A: 0.983

Q: For ATTTGTGGTC, which switch fluorescence ratio is on record?
A: 0.98

Q: How did the switch fluorescence ratio turn out when ATTTTACGGC was run?
A: 1.09

Q: How did the switch fluorescence ratio turn out when ATTTTAGAA was run?
A: 0.994

Q: For ATTTTAGGCT, which switch fluorescence ratio is on record?
A: 1.02

Q: How did the switch fluorescence ratio turn out when ATTTTCG was run?
A: 1.01

Q: Which switch fluorescence ratio does the source give for ATTTTGCAG here?
A: 1

Q: ATTTTGCGGT was tested. Which switch fluorescence ratio did it give?
A: 1.01

Q: ATTTTGCTAT was tested. Which switch fluorescence ratio did it give?
A: 1.04

Q: ATTTTGTACT was tested. Which switch fluorescence ratio did it give?
A: 1.02

Q: For ATTTTTGTT, which switch fluorescence ratio is on record?
A: 0.963

Q: Which switch fluorescence ratio does the source give for ATTTTTTATG here?
A: 0.959

Q: For CAAAACCATG, which switch fluorescence ratio is on record?
A: 0.996

Q: How did the switch fluorescence ratio turn out when CAAAACTGCA was run?
A: 0.958

Q: CAAAAGCGGG was tested. Which switch fluorescence ratio did it give?
A: 1

Q: For CAAAAGTGCA, which switch fluorescence ratio is on record?
A: 1.08

Q: For CAAAATTCGA, which switch fluorescence ratio is on record?
A: 1

Q: How did the switch fluorescence ratio turn out when CAAACACCT was run?
A: 1.38

Q: For CAAACCCCTG, which switch fluorescence ratio is on record?
A: 1.04

Q: For CAAACCGATT, which switch fluorescence ratio is on record?
A: 1.05

Q: With CAAACCTGTG as the sequence, how does the switch fluorescence ratio read?
A: 1.09

Q: For CAAACGCATT, which switch fluorescence ratio is on record?
A: 4.2

Q: For CAAACGGTAA, which switch fluorescence ratio is on record?
A: 1.08

Q: CAAACGTGAT was tested. Which switch fluorescence ratio did it give?
A: 1.29

Q: Which switch fluorescence ratio does the source give for CAAACGTGCG here?
A: 1.04

Q: Which switch fluorescence ratio does the source give for CAAAGACGGA here?
A: 0.967

Q: How did the switch fluorescence ratio turn out when CAAAGAGAGG was run?
A: 1.01

Q: With CAAAGAGCG as the sequence, how does the switch fluorescence ratio read?
A: 0.991

Q: Which switch fluorescence ratio does the source give for CAAAGCCTTA here?
A: 1

Q: CAAAGGCTA was tested. Which switch fluorescence ratio did it give?
A: 1.03

Q: For CAAAGGCTCT, which switch fluorescence ratio is on record?
A: 0.99

Q: How did the switch fluorescence ratio turn out when CAAAGGTCAA was run?
A: 1.02

Q: Which switch fluorescence ratio does the source give for CAAAGGTCAC here?
A: 0.994

Q: Which switch fluorescence ratio does the source give for CAAAGGTTTT here?
A: 1.01

Q: For CAAAGTATTC, which switch fluorescence ratio is on record?
A: 0.995

Q: With CAAAGTCTAG as the sequence, how does the switch fluorescence ratio read?
A: 1.03

Q: CAAAGTCTTT was tested. Which switch fluorescence ratio did it give?
A: 0.957

Q: Which switch fluorescence ratio does the source give for CAAAGTGCGT here?
A: 0.982

Q: For CAAAGTGGCC, which switch fluorescence ratio is on record?
A: 0.935

Q: Which switch fluorescence ratio does the source give for CAAAGTTCGG here?
A: 0.929

Q: With CAAATAAATG as the sequence, how does the switch fluorescence ratio read?
A: 0.98

Q: With CAAATAAGGG as the sequence, how does the switch fluorescence ratio read?
A: 1.01

Q: With CAAATAATCT as the sequence, how does the switch fluorescence ratio read?
A: 0.985
